Laboratory results published in PubChem BioAssay AID1508623 (National Center for Advancing Translational Sciences (NCATS), 2021).
In all, about 48,000 compounds went through this assay and about 450 (0.94%) were called active. Roughly 19% stayed inconclusive and do not appear here. Calls come from the whole dose curve; as a rule, active = well fitted inhibition curve with a large enough effect; inconclusive = small, poorly fitted or top-dose-only effect; inactive = no such curve, though single readings can be large or run the other way. Some of the results follow.

experiment: Primary qHTS for Identification of Small Molecule Inhibitors of Huntingtin Promoter Activity; conditions: HEK293 HTT promoter firefly luciferase reporter (activity 0% = vehicle and -100% = no light), 24 h; series mostly up to 57.5 µM; activity change, negative = inhibition: at the top concentration; note: nearly all actives have a fitted effect of over 50% in size
Summary of the method: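 HEK293 cells carrying firefly luciferase reporters were seeded at 2,500 per well in Opti-MEM and cultured for 24 h. They were then treated with compounds at up to 57.5 uM final for 24 h at 37 degrees C before Dual-Glo luminescence readout.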

Activity change, negative = inhibition, inactive:
CCOc1ccccc1NC(=O)C(CC(C)C)NS(=O)(=O)c1ccc2c(c1)CCN2C(C)=O (stereo not given) -15.3%
CCc1ccccc1NC(=O)Cn1ncc2c(C)n(Cc3ccccc3F)c(C)c2c1=O -14.3%
CC(C)CNC(=O)CCSc1nc(-c2ccc3c(c2)OCO3)cc(C(F)(F)F)n1 -4.15%
O=C(Cn1c(=O)n(Cc2nc(-c3ccccc3)no2)c(=O)c2cc3c(cc21)OCO3)Nc1ccc(Cl)cc1 -14.9%
Cc1ccc(C)c(N2CCN(c3ccc(NC(=O)c4cccs4)cc3C(=O)O)CC2)c1 -11.6%
CC(C)[C@H](N)C(=O)OCCOCn1cnc2c(=O)[nH]c(N)nc21
CCOc1ccc(-n2c(=O)c3c(C)c(C)sc3n(CC(=O)c3ccccc3)c2=O)cc1 -18.2%
CCN(CC)CCCNC(=O)c1c(C)oc2ncn(CC(C)C)c(=O)c12 -21.5%
CCc1ccc(-n2nc(C)c3c(C)cc(=O)n(CC(=O)Nc4ccc(C)c(F)c4)c32)cc1 -8.3%
CCCCN(C)S(=O)(=O)c1cc(-c2nnc3c4ccccc4c(C)nn23)ccc1C 2.75%
CN(C)c1ccc(NC(=O)CCSc2nc(-c3ccco3)cc(C(F)(F)F)n2)cc1 3.64%
COc1cccc(OC)c1-c1cc(C(=O)NC2(C(=O)O)C3CC4CC(C3)CC2C4)nn1-c1ccnc2cc(Cl)ccc12 (stereo not given) 5.03%
CC1CCc2c(sc(NC(=O)CCCOc3ccc(C(C)(C)C)cc3)c2C(N)=O)C1 (stereo not given) -16.4%
COc1cc(Br)c(C2CC(=O)Nc3cc(OC)c(OC)c(OC)c32)cc1OC (stereo not given) -16.5%
COCCCNC(=O)c1cc2c(=O)n3cccc(C)c3nc2s1 21.8%
CO[C@@H]1[C@@H](OC(N)=O)[C@@H](O)[C@H](Oc2ccc3c(O)c(NC(=O)c4ccc(O)c(CC=C(C)C)c4)c(=O)oc3c2C)OC1(C)C
CCCCc1nc2ccccc2n2c(-c3ccc(C)cc3)c3c(=O)n(C)c(=O)n(C)c3c12 -7.52% [at 11.5 µM]
CSc1cccc(NC(=O)CN(c2ccccc2)S(=O)(=O)N(C)C)c1 -2.1%
CC1CCN(S(=O)(=O)c2ccc3c(c2)N(CC(=O)NC(C)c2ccccc2)C(=O)CO3)CC1 (stereo not given) -13.6%
Cc1cc(N2CCCCC2)nc2ccc(NC(=O)c3cccc(F)c3)cc12 -18%
CCCc1nnc(NC(=O)Cc2coc3cc(C)cc(C)c23)s1 -16.1%
CCCN1CCN(CCCNC(=O)c2cnn(-c3ccc(F)cc3)c2-n2cccc2)CC1 -30.8%
O=C(Cn1c(=O)n(-c2ccccc2)c(=O)c2sc3ccccc3c21)N1CCCC1 4.71%
O=[N+]([O-])c1cc(-c2nc(-c3cccnc3)no2)ccc1NCc1ccccc1 -5.45%
CC(C)c1ccc(NC(=O)CN2C(=O)COc3ccc(S(=O)(=O)Nc4ccccc4)cc32)cc1 -25.6%
CC(C)OCCCNC(=O)CCCn1c(SCC(=O)c2ccc(F)cc2)nc2c(sc3ccccc32)c1=O -9.47%
COc1ccc(CCNC(=O)c2nnc(Cc3ccc(Cl)cc3)o2)cc1OC -20.6%
O=Nc1c(-c2c(O)[nH]c3cc(Br)ccc23)[nH]c2ccccc12 -7.53%
COc1ccc(-c2nn3c(=O)cc(CN4CCN(C(=O)Nc5ccc(C)c(Cl)c5)CC4)nc3s2)cc1 -10.6%
Cc1ccc2oc(=O)c3cnn(CC(=O)Nc4cccc(C(F)(F)F)c4)c3c2c1 -3.35%
Cc1c(C(=O)NCc2ccccc2)sc2nc3n(c(=O)c12)CCC3 44.1%
CCCOC(=O)c1ccc(NC(=O)Cc2csc(C)n2)cc1 4.1%
CCC(=O)N1CCc2cc(Br)cc(S(=O)(=O)NCc3ccc(Cl)cc3)c21 -12.6%
COc1ccc(N2CCN(C(=O)c3ccc(CS(=O)(=O)c4ccc(Br)cc4)o3)CC2)cc1 -14.8%
CN(C)CCNC(=O)CCCN1C(=O)c2cccnc2Oc2ccc(Cl)cc21 11.9%
CCN(c1ccccc1)c1nnc(NC(=O)Nc2cccc(Br)c2)s1 -8.45%
Cc1cc(C)cc(-n2ccn(CC(=O)Nc3ccccc3C(F)(F)F)c(=O)c2=O)c1 -12.4%
Cc1ccc(N2CC(C)Cn3c2nc2c3c(=O)n(CC(=O)O)c(=O)n2C)cc1 (stereo not given) 0.908%
COCCCNC(=O)CSc1c2c(nc3ccc(Cl)cc13)CCCC2 -12.3%
CCN(c1ccc(OC)cc1)S(=O)(=O)c1nnc(NC(=O)c2ccccc2Cl)s1 -17.3%
CCOc1ccc(C2c3c(oc4ccc(C)cc4c3=O)C(=O)N2Cc2ccc3c(c2)OCO3)cc1OC (stereo not given) 4.69%
Cc1nc(-c2ccccc2)sc1CCNC(=O)c1ccco1 -8.67%
CCc1ccccc1NC(=O)CSc1ncc2c(n1)-c1ccccc1N(Cc1ccc(C)cc1)S2(=O)=O -19.5%
Cc1ccc(S(=O)(=O)c2cn(Cc3ccccc3)c3cc(N4CCCC4)c(F)cc3c2=O)cc1C -15.3%
COc1ccccc1CNS(=O)(=O)c1c(C)nc2sccn2c1=O 0.959%
CCOC(=O)c1ccccc1NS(=O)(=O)c1c(-c2ccc(C)cc2)csc1C(=O)OC -8.15%
COc1cccc(CNC(=O)CCc2c(C)c3cc4c(C)c(C)oc4cc3oc2=O)c1 5.21%
O=C(Nc1ccc(NC(=O)c2cccs2)cc1)c1ccc(Br)cc1 -14.5%
CC(C)(C)C(=O)Nc1ccc2nc(SCC(=O)N3CCCC3)sc2c1 24.6%
O=C(OCc1ccccc1Cl)c1ccc(-c2nnn(Cc3ccccc3)n2)cc1 10.3%
CCN(CCCNC(=O)c1cc2cc3cc(C)ccc3nc2s1)c1cccc(C)c1 0%
NCC1CCC(C(=O)Oc2ccc(CCC(=O)O)cc2)CC1 (stereo not given) -23.4%
COc1ccc(/C=C(/C#N)c2nc(-c3ccc(-c4ccccc4)cc3)cs2)cc1 2.86%
Cc1ccc(C)c(NC(=O)C(=O)NCCc2csc(-c3ccc(C(F)(F)F)cc3)n2)c1 -1.18%
CCOC(=O)Cn1c(=O)cc(-c2ccccc2)c2c(C)nn(C)c21 0%
CCC(C)NC(=O)Cn1c(=O)n(-c2ccc(C)cc2)c(=O)c2ccccc21 (stereo not given) -15.3%
CCc1ccccc1N(CC)C(=O)c1cc2c(s1)-c1ccccc1OC2 -20.8%
CCc1ccc(-n2nc(CO)c(C(=O)NCc3ccccn3)n2)cc1 0.887%
Cc1ccccc1CSc1nc2nc(C)c(Cc3ccccc3)c(C)n2n1 7.15%
COc1ccc(OC)c(CCNC(=O)c2ccc(CS(=O)Cc3cccc(Cl)c3)o2)c1 (stereo not given) -7.84%
